Assay results from the GPR68 mutational scans of Howard et al. (2025).
Scores whose standard error is large were omitted. Not listed are two conditions whose scores span a narrow range. Read del as a deletion of the residues named and ins as an insertion between two positions. For some of these results: The data file names ogerin without a concentration.

B1: GPR68, Q15743 (parent)
chain: MGNITADNSSMSCTIDHTIHQTLAPVVYVTVLVVGFPANCLSLYFGYLQIKARNELGVYLCNLTVADLFYICSLPFWLQYVLQHDNWSHGDLSCQVCGILLYENIYISVGFLCCISVDRYLAVAHPFRFHQFRTLKAAVGVSVVIWAKELLTSIYFLMHEEVIEDENQHRVCFEHYPIQAWQRAINYYRFLVGFLFPICLLLASYQGILRAVRRSHGTQKSRKDQIQRLVLSTVVIFLACFLPYHVLLLVRSVWEASCDFAKGVFNAYHFSLLLTSFNCVADPVLYCFVSETTHRDLARLRGACLAFLTCSRTGRAREAYPLGAPEASGKSGAQGEEPELLTKLHPAFQTPNSPGSGGFPTGRLA

Columns and labels:
[1] = variants of: B1; test: cAMP reporter score (Enrich2 score, wild type = 0); higher = more signal; HEK293T, FACS bins
[2] = variants of: B1; test: surface expression score (Enrich2 score, wild type = 0); higher = more signal; HEK293T, FACS bins

Variant | cAMP reporter score ([1]; pH 5.5) | cAMP reporter score ([1]; pH 6) | cAMP reporter score ([1]; pH 6, modulator: ogerin) | cAMP reporter score ([1]; pH 6.5, modulator: ogerin) | surface expression score [2]
MLNITADNSSMSCTIDHTIHQTLAPVVYVTVLVVGFPANCLSLYFGYLQIKARNELGVYLCNLTVADLFYICSLPFWLQYVLQHDNWSHGDLSCQVCGILLYENIYISVGFLCCISVDRYLAVAHPFRFHQFRTLKAAVGVSVVIWAKELLTSIYFLMHEEVIEDENQHRVCFEHYPIQAWQRAINYYRFLVGFLFPICLLLASYQGILRAVRRSHGTQKSRKDQIQRLVLSTVVIFLACFLPYHVLLLVRSVWEASCDFAKGVFNAYHFSLLLTSFNCVADPVLYCFVSETTHRDLARLRGACLAFLTCSRTGRAREAYPLGAPEASGKSGAQGEEPELLTKLHPAFQTPNSPGSGGFPTGRLA [G2L] | 0.451 | -0.596 | 0.646 | -0.195 | -0.054
MMNITADNSSMSCTIDHTIHQTLAPVVYVTVLVVGFPANCLSLYFGYLQIKARNELGVYLCNLTVADLFYICSLPFWLQYVLQHDNWSHGDLSCQVCGILLYENIYISVGFLCCISVDRYLAVAHPFRFHQFRTLKAAVGVSVVIWAKELLTSIYFLMHEEVIEDENQHRVCFEHYPIQAWQRAINYYRFLVGFLFPICLLLASYQGILRAVRRSHGTQKSRKDQIQRLVLSTVVIFLACFLPYHVLLLVRSVWEASCDFAKGVFNAYHFSLLLTSFNCVADPVLYCFVSETTHRDLARLRGACLAFLTCSRTGRAREAYPLGAPEASGKSGAQGEEPELLTKLHPAFQTPNSPGSGGFPTGRLA [G2M] | -0.513 | – | -0.597 | -0.626 | -0.243
MNNITADNSSMSCTIDHTIHQTLAPVVYVTVLVVGFPANCLSLYFGYLQIKARNELGVYLCNLTVADLFYICSLPFWLQYVLQHDNWSHGDLSCQVCGILLYENIYISVGFLCCISVDRYLAVAHPFRFHQFRTLKAAVGVSVVIWAKELLTSIYFLMHEEVIEDENQHRVCFEHYPIQAWQRAINYYRFLVGFLFPICLLLASYQGILRAVRRSHGTQKSRKDQIQRLVLSTVVIFLACFLPYHVLLLVRSVWEASCDFAKGVFNAYHFSLLLTSFNCVADPVLYCFVSETTHRDLARLRGACLAFLTCSRTGRAREAYPLGAPEASGKSGAQGEEPELLTKLHPAFQTPNSPGSGGFPTGRLA [G2N] | 0.044 | 0.162 | -0.271 | -0.021 | 0.011
MPNITADNSSMSCTIDHTIHQTLAPVVYVTVLVVGFPANCLSLYFGYLQIKARNELGVYLCNLTVADLFYICSLPFWLQYVLQHDNWSHGDLSCQVCGILLYENIYISVGFLCCISVDRYLAVAHPFRFHQFRTLKAAVGVSVVIWAKELLTSIYFLMHEEVIEDENQHRVCFEHYPIQAWQRAINYYRFLVGFLFPICLLLASYQGILRAVRRSHGTQKSRKDQIQRLVLSTVVIFLACFLPYHVLLLVRSVWEASCDFAKGVFNAYHFSLLLTSFNCVADPVLYCFVSETTHRDLARLRGACLAFLTCSRTGRAREAYPLGAPEASGKSGAQGEEPELLTKLHPAFQTPNSPGSGGFPTGRLA [G2P] | 0.151 | -0.627 | 0.013 | 0.367 | 0.611
